# Test results: the supplement of paper PMC12632987
# Over roughly 4,500 sequences, “median log2 fold change of GCK-ALFA target abundance (FLAG IP / Myc IP barcode read proportion)” has its median near 0.078; the lowest 2% begin near -0.6. This is one part of the list.
# B1: GBRAP_35_5532 (protein)
# chain: DSDEEIAEMLLNTMEDIVLALPDVSPEQQEKLAKHLIRLAEDFIKLKTKSKELIERLIEILEEAIKIIKESDLPKEQQEELIKKLEELKEEAEKLLKEVK
# B2: GBRAP_52_6224 (protein)
# chain: MEEEAERLAKEILKTVKEKGVEAAVELLKEIAATHSPELVIAVLKKLVELLKDESAETAEAVLDALIAAEDALIAAGVPEEDVEDAIAAAAAVAVELLKK
# B3: GBRAP_128_3279 (protein)
# chain: PDPAVVARARAFVAAIAAAGPEEARALAREFADWLGSISEAEAEQAVAEVEKELHRLSVEHLEILADVLEEKRPEYSPGKANLVADLQVAALNEAEEKEE
# B4: GBRAP_26_5456 (protein)
# chain: LEEVIDEQRDKILALFDEVLDPEKAAALKTEVLTEAEEIEEVVEAHPNDAEKIKAAIEEAEEDILEMMKELEVPEEAFKKLSEKVEEEAEKIKAAVDAKA
# B5: GBRAP_52_5863 (protein)
# chain: MEERIRAALERGLALVKAGRLEEARALAKELVASLTEEEVEVLTRVAAELALAAAPEDLDAVWELAELIAEALEEAGFPEELVTLFEDEVGAAIAKVEAA
# B6: GBRAP_83_6923 (protein)
# chain: KEHITVAANSDNIDEAFDAAIDLHKEEGYEVSIDVIVKKEDIPKLLESFEKLAKEGVETELRISLLGATKEEAEKLKKELEEIAKKYGVNIKVEVEAIEL
# B7: GBRAP_166_4921 (protein)
# chain: SMEEKVEEAKERLRAVIAEERADPRMTPAQITVALADELAEILDEEKDEETRMKIVRAGLEIAKEAGLDPERLARLTAGLYGFSDEEIEKIEKIVKEILA
# B8: GBRAP_39_5700 (protein)
# chain: EKEEELENRFSYYEAVGAKYMYENNISLEEAIKEAKKILDKISEEYPELKPLVDELKDILENGNEELKIAAIGIAKKYEEGMPLEEFKEDATALIEYSKS
# B9: GBRAP_11_2674 (protein)
# chain: QKEKLEEAARLAEELAAAVQALIAAGVTDAALRAKAGALLDELAALVEAHADEASKRDVAVARELWDALLADPANAAAYAEQLLAAARVLEGNFLLEIEE
# B10: GBRAP_160_4493 (protein)
# chain: SAALAEAQAAVDATLAELADALAEDDTAGAAGIAAAYAGDIVQEARELGVVTDEQADELLALAEAGGAAIVAAKAAGPAAMAAATAATRAALHAFLKKAA
# B11: GBRAP_11_2618 (protein)
# chain: KKEILKEKAKLAEEAAKAVEELLKKGVDDEELLKKIEKLLKELEELVKKHGSEADKKEVEIAKELFKKMKEDKENKEKYAEELLAALRVLAGNYLLEIEE
# B12: GBRAP_80_6756 (protein)
# chain: ARAALEAALAALEALDPELGARLREVLERALEAGVPVETVLRLVEALVELAKLDLEKARELAEEFIEELEEELEAGDLEGAIATLVDYASEALLAVEELE
# B13: GBRAP_160_4793 (protein)
# chain: SERVEKVAEIFREEGERALEMAEGETPEERVAVFDVELGAAIMEAIDLGLLNDEEEDIAIEVRDELVAAIRANPDLTPEELRALLEEQVERLRERLEKLE
# B14: GBRAP_83_6929 (protein)
# chain: KEKIVVAANDDTIDEAFEAAIDLTKEEGYEVTVEVIITPESFEKLLEAFEKMAKAGWEGKLEIYALGATEEEVEELKKKLEEIAKKYGVNIEIEVINEEL
# B15: GBRAP_125_3053 (protein)
# chain: DLEAAIAALAALARLLGLSPEEVAELAELARRYGVKGTLYALLMAEGAEDLADLVAELTEEEVIAVLERLAAWLAAHPDATADEALAQLRALAEEALARR
# B16: GBRAP_160_4701 (protein)
# chain: SATAKKLKEYVEETFKEAKKLIKGETREQRAIIVEGAIGEILMELAENPEATDELEDEVDKIGDELIAQIKADKNITDEELKALIDKAVEEMKKAIDKHL
# B17: GBRAP_52_6229 (protein)
# chain: MEEEARRKVEEMLALVKAGDLEGARALAREIAETWSDEELEVFIEELARLAEASPLEEEPYWEKLAEIVAEVLEELGRDEVLVDDLEARVAAALYKRRQA
# B18: GBRAP_139_3759 (protein)
# chain: SEEEKVEELAKKLVEAAKEGNEEELKKLAKEIASLSEENQKKAIKKVAELAKSLTFEQVEKIRDVLIETFLTERKNEDLATYAEGEFNGTLALVAYREEQ
# B19: GBRAP_128_3173 (protein)
# chain: SIEEVKEETKELMEKIKNSSPEEAKKIAKELFERLLTLSLEEAEAAVEVILEMLPELSAEKLKIIADEARKYRPKATPEKAELVAEVEVEALNLEEELEE
# Target: GABARAP, O95166
# Sequence (O95166 whole entry, the tested form may be a part): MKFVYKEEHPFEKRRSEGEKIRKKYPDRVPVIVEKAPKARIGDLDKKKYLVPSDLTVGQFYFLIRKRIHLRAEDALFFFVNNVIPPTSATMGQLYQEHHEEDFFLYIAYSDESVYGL
# Assay: median log2 fold change of GCK-ALFA target abundance (FLAG IP / Myc IP barcode read proportion) (log2 ratio); each designed protein is fused to an ALFA-tag nanobody in HEK293 cells to bring the named protein to FLAG-tagged glucokinase (GCK); Myc marks an untargeted standard; higher = target protein stabilised (more abundant)
# Details: target protein: 3xFLAG-MCP-GCK-ALFA reporter; HEK293 landing pad (RPLP)
# In short: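 HEK293 landing-pad cells received a recombined binder library fused to the ALFA nanobody and were induced with 2 μg mL^−1 doxycycline, then transfected with a plasmid encoding a FLAG-tagged target and a Myc-tagged standard. Lysates were collected after 48 h for anti-FLAG and anti-Myc immunoprecipitation, and the circular RNA barcodes were reverse transcribed, amplified and sequenced. Target abundance for each binder is the median log2 ratio of FLAG to Myc barcode read proportions. Barcodes had to reach a proportion of at least 10^−7 in both replicates, each binder needed at least 3 barcodes per replicate, a pseudocount of 10^−6 was applied, and the two replicates were pooled.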
row,Binder,median log2 fold change
1,B1,-0.0834
2,B2,0.149
3,B3,0.0749
4,B4,0.0449
5,B5,0.0457
6,B6,0.0512
7,B7,0.163
8,B8,0.353
9,B9,0.218
10,B10,-0.322
11,B11,0.235
12,B12,-0.0333
13,B13,0.0962
14,B14,-0.01
15,B15,-0.187
16,B16,0.0431
17,B17,0.0132
18,B18,0.364
19,B19,0.151
